# About 540 (0.36%) of roughly 150,000 compounds showed an effect of 50% or more. This is one part of the list.
# Tested on: Plasmodium falciparum
# Experiment: Primary screen in NF54 nanoGlo assay, in single point, at 2uM, 72h; a lower Z score goes with more inhibition
# Assay type: functional, Erythrocyte
# Conditions: timepoint 72 hour
Structure (SMILES),% Inhibition [%],Z score
Cc1cn2c(n1)CC[C@H](Nc1nc(C(C)C)no1)C2,-4,0.38
O=C(CCc1conc1-c1ccccc1)NCc1ccccc1Br,-13,1.68
CCOc1ccc2nc(CN(C)[C@@H]3CCCC[C@@H]3O)ccc2c1,-18,1.9
Cc1cn(C(C)(C)C(=O)N2CCCNC(=O)[C@@H]2C)nc1C(F)(F)F,-7,1.02
COC1(c2nc(-c3cccc(C)n3)no2)CCCCC1,2,-0.21
CCOCCOc1nc(-c2ccc(C)cc2)n(-c2ccc(NC(=O)Nc3ccccc3C)cc2)n1,2,-0.29
CC(C)CC(=O)N1CCc2ccc(OCc3nc(C(=O)N4CCN(C)CC4)co3)cc2[C@@H]1c1ccccc1,-1,0.06
CC(C)CC(=O)NC[C@@]12CCC=C1N(C)C(=O)CC2,6,-0.8
Cc1cccc(NC(=O)Nc2ccccc2-c2cc3ccccc3[nH]2)c1C,2,-0.31
C[C@@H](Cn1cncn1)C(=O)NC1(c2cc(F)cc(F)c2)CC1,-3,0.32
COc1cccc(NS(=O)(=O)c2cc(C(=O)N3CCCCC3)ccc2NCc2ccccc2Cl)c1,0,0.05
Cn1cc(Cl)cc1C(=O)N1CCC12CN(C(=O)OC(C)(C)C)C2,-2,0.3
C=CCNC(=O)NCCCNc1ccccc1,-4,0.56
c1cnc(-c2noc(-c3ccccc3-c3ncc[nH]3)n2)nc1,-30,3.24
CC(C)Oc1ccccc1NC(=O)N(C)C1C2CCOC2C1(C)C (stereo not drawn),-8,1.01
COc1ccc(Br)c(CC(=O)N2CC3CCC2C3)c1 (stereo not drawn),-6,0.66
CC[C@@H](C(=O)NCCN1CCOCC1)n1c(Cc2ccc(Cl)cc2Cl)nc2ccccc21,13,-2.48
CC(C)c1cnc(COc2ccc(-n3cncn3)cc2)o1,-6,0.87
CCN(Cc1cccc(Cl)c1)C[C@H](C)O,-8,1.41
CCc1cc(N2CCC[C@H](N3CCCC3)C2)n2ncnc2n1,0,0.01
Cc1cc(C)c(C(=O)c2sc(Nc3ccc4c(c3)OCCO4)nc2N)cc1C,-21,3.19

Structure (SMILES),% Inhibition [%],Z score
COC(CS(=O)(=O)NC1CCCC12OCCO2)c1ccc(F)cc1 (stereo not drawn),3,-0.66
O=S(=O)(Cc1ccccc1)N1CCCC[C@H]1c1nnc(-c2ccncc2)[nH]1,9,-1.67
CCN(C[C@H](C)C#N)C(=O)c1ncncc1Br,3,-0.5
CCn1nc(C)cc1C(=O)N1CCC(n2cc(C3CC3)nn2)CC1,1,-0.12
CS(=O)(=O)CCCNc1c(F)cccc1Cl,-1,0.08
CN(C)CCNC(=O)C1=NOC2(CCN(C(=O)OC(C)(C)C)CC2)C1,-11,1.94
COc1ccc2oc(-c3ccc(CNC(=O)c4ccccc4)cc3)nc2c1,35,-1.01
C[C@@H](C(=O)Nc1cnn(-c2ccc(Cl)cc2)c1)N1CCN(C)CC1,-12,0.98
O=C(Nc1ncccc1-c1ccccc1)[C@@H]1Cc2ccccc21,-2,0.29
C[C@]12CC[C@@H](O)C[C@@H]1CC[C@@H]1[C@@H]2CC[C@]2(C)C3CC[C@]12O[C@@H]1NC(=O)CC31 (stereo partly drawn),0,0.02
c1ccc(N2CCN(Cc3cc(CC4(NCc5cccnc5)COC4)no3)CC2)cc1,-4,0.74
C#C[C@@H]1COCCN1C(=O)c1cc(Cl)c2c(c1)OCCCO2,-13,1.91
CCOC1CC(N(C)C(=O)c2csc(CN)n2)C1(C)C (stereo not drawn),-3,0.5
O=C(NCCOc1cccc(Cl)c1)NC[C@H]1CCS(=O)(=O)C1,-18,1.86
Cc1ccc(OCc2nc(C(=O)NCc3ccccn3)cs2)c(C)c1,-1,0.08
NC(N)=Nc1nc(-c2ccc(S(=O)(=O)N3CCCCCC3)cc2)cs1,7,-0.67
COc1cccc(-c2nc3cc(F)ccc3cc2CN[C@H]2CCS(=O)(=O)C2)c1,-9,1.34
CO[C@H]1CCN(c2cc(N3CCC(C)(O)CC3)ncn2)C1,-7,0.82
COc1c(CNc2nncs2)c(C)nn1C,9,-0.83
CCc1nocc1CN(C)C(=O)NC1CC2CC2C1 (stereo not drawn),-2,0.26
Cc1cccc(C(=O)N(C)CCO)c1C,-4,0.43

Structure (SMILES),% Inhibition [%],Z score
Cc1ccc(NC(=O)CC[C@@H]2CN(CC(C)C)CC[C@@H]2N2CCN(c3ccccc3F)CC2)cc1,-10,1.22
CO[C@H]1[C@@H]2CC[C@H]1CN(Cc1cc(CN(C)C)cs1)C2,-2,0.23
CN(C(=O)c1cnn(Cc2ccccc2)c1)[C@H]1CCS(=O)(=O)C1,-2,0.22
O=C(Cn1cc(S(=O)(=O)N2CCCCCC2)ccc1=O)Nc1ccc2c(c1)OCCO2,0,-0.06
NC(=NCCc1cccc(Cl)c1)N1CCOCC1,0,0.04
O=C(CCN1CC[C@H](NC(=O)c2ccccc2)[C@@H](O)C1)NC1CCCCC1,-1,0.21
COc1cc(NC(=O)Cn2c(=O)n(-c3ccccc3)c(=O)c3c2cc(C)n3C)cc(OC)c1,-14,1.33
CN(C(=O)C1CC1c1cc(F)ccc1F)C1CC[S+]([O-])CC1 (stereo not drawn),-6,0.48
N#Cc1ccc(NCCCC(=O)N2Cc3ccccc3C2)cn1,-47,5.54
O=C1CN(C(=O)CN2CCC[C@H](CN3CCOCC3)C2)c2ccccc2N1,-5,0.68
CC(C)(C)C(=O)NCCCn1ccnc1,-8,1.6
Cc1ccc(OCC(=O)N2CCCC[C@@H]2CCN2CCCC2)cc1C,-15,1.93
Cc1cc(N2C[C@H](C3CC3)[C@@H](N)C2)nc2cc(F)ccc12,-8,1.25
Cc1nc(C)c(C)c(N2CCC[C@H](C(=O)Nc3ncccc3C)C2)n1,-22,1.84
O=C(NCC1CCN([C@H]2CCOC2)CC1)c1ccc2c(c1)OCO2,-7,1.31
CCCN(Cc1ccc(C)o1)Cc1ccc(C(O)(c2ccc(OC)cc2)c2ccc(OC)cc2)o1,5,-0.88
COc1ccc(Nc2nc3ccccc3s2)cc1S(=O)(=O)N1CCOCC1,-7,0.9
c1cncc(-c2cn(C3CCN(C4CCCCCC4)CC3)nn2)c1,-11,1.6
CN(c1cccc(C(=O)Nc2ccccc2C(N)=O)c1)S(=O)(=O)c1ccccc1,-10,1.79
CC(C)OC1CCC(NC2CCC3CN(Cc4ccccc4)CC32)CC1 (stereo not drawn),1,-0.09
Cc1c(Cl)cccc1S(=O)(=O)N1CCC[C@H](Cc2nc(C3CC3)no2)C1,15,-1.95

Structure (SMILES),% Inhibition [%],Z score
C[C@@H](C(=O)N(C)Cc1ccon1)c1ccc(-c2ccccc2)c(F)c1,0,0.03
O=C(Cc1n[nH]c(=O)c2ccccc12)N1C[C@H]2Cc3cccc(=O)n3[C@@H](C2)C1,-18,2.35
OC1(O)C[C@@H](n2ccnc2)C2CO[C@@H]1O2,-14,1.84
COc1cccc(C2CC2C(=O)N(CCc2ccccc2)c2nc(C)cs2)c1 (stereo not drawn),-6,0.9
COC(CNC(=O)N1CCC[C@@H]1c1csc(C)n1)c1ccccc1 (stereo partly drawn),-17,2.69
CC(C)[C@@H](NC(=O)c1cc(Br)ccc1F)C(=O)O,-7,1.17
O=C(NCCCN1CCCC1)c1cc2n(n1)CCCN(Cc1ccc(F)cc1)C2=O,-5,0.49
COCCOCC(=O)N1CCCCC[C@@H]1Cc1cccs1,-1,0.12
CCOC(=O)C1C(N)CCN1C(=O)OC(C)(C)C (stereo not drawn),1,-0.17
COCCNC(=O)C1CCN(c2cc(C)nc3cc(-c4ccc(Cl)cc4)nn23)CC1,13,-1.52
CCNc1nc(C(=O)NCC23CCCN2CCC3)cs1,-9,1.64
Cc1[nH][nH]c(=O)c1CC(=O)N[C@H]1CC[C@@H]2CCC[C@@H]21,0,0.05
C=CCN1CC[C@H](n2cnc(C#N)n2)C1=O,-15,1.36
O=C(NCCc1cscn1)[C@H]1CCN(c2ccccc2Cl)C1,-6,1.04
O=C(O)C1CC(c2ccccc2)CN(C(=O)C2CCCC2)C1 (stereo not drawn),-14,1.23
CO[C@H]1[C@@H]2CC[C@H]1CN(C(=O)CCCn1cncn1)C2,2,-0.34
Cc1nc(CC(=O)N(CC#Cc2ccccc2)C2CCCC2)cs1,-15,1.54
Cc1cccc(C)c1C(=O)N(C)CC(C)(CO)CO,-9,1.04
O=C(CC1CCCC(CC(=O)c2ccccc2)N1)c1ccccc1 (stereo not drawn),-46,5.44
CCC[C@]1(CO)CCCN1C(=O)Nc1cnc(OC)cn1,2,-0.22
Cc1ccc(-c2nc(-c3ccc(-c4ccccc4)cc3)c(-c3ccc(-c4ccccc4)cc3)[nH]2)cc1,-17,1.81
